# Source: the supplement of paper PMC8728848
# The list shows a part of the results.
# Key:
# Assay in all cases: glycan array binding signal (z-score within array); higher = stronger binding
# Details in all cases: glycan notation: IUPAC condensed, linker removed
# [1] = molecular target: Fuc(a1-2)Gal(b1-4)Glc6S
# In short: (§1)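 From the Consortium for Functional Glycomics database, 3228 arrays were curated, keeping only those whose protein sequence was available. Binding is given as a within-array Z-score averaged across arrays sharing a protein sequence and across linkers. Negative Z-scores can be read as non-binding.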
# [2] = molecular target: Fuc(a1-2)Gal(b1-4)GlcNAc
# In short: as §1
# [3] = molecular target: Fuc(a1-2)Gal(b1-4)GlcNAc(b1-2)Man
# In short: as §1
# [4] = molecular target: Fuc(a1-2)Gal(b1-4)GlcNAc(b1-2)Man(a1-3)[Fuc(a1-2)Gal(b1-4)GlcNAc(b1-2)Man(a1-6)]Man(b1-4)GlcNAc(b1-4)GlcNAc
# In short: as §1
# [5] = molecular target: Fuc(a1-2)Gal(b1-4)GlcNAc(b1-2)Man(a1-3)[Fuc(a1-2)Gal(b1-4)GlcNAc(b1-2)Man(a1-6)]Man(b1-4)GlcNAc(b1-4)[Fuc(a1-6)]GlcNAc
# In short: as §1
# [6] = molecular target: Fuc(a1-2)Gal(b1-4)GlcNAc(b1-2)[Fuc(a1-2)Gal(b1-4)GlcNAc(b1-4)]Man(a1-3)[Fuc(a1-2)Gal(b1-4)GlcNAc(b1-2)Man(a1-6)]Man(b1-4)GlcNAc(b1-4)GlcNAc
# In short: as §1
# [7] = molecular target: Fuc(a1-2)Gal(b1-4)GlcNAc(b1-3)Gal(b1-4)GlcNAc
# In short: as §1
# [8] = molecular target: Fuc(a1-2)Gal(b1-4)GlcNAc(b1-3)Gal(b1-4)GlcNAc(b1-2)Man(a1-3)[Fuc(a1-2)Gal(b1-4)GlcNAc(b1-3)Gal(b1-4)GlcNAc(b1-2)Man(a1-6)]Man(b1-4)GlcNAc(b1-4)GlcNAc
# In short: as §1
# [9] = molecular target: Fuc(a1-2)Gal(b1-4)GlcNAc(b1-3)Gal(b1-4)GlcNAc(b1-3)Gal(b1-4)GlcNAc
# In short: as §1
# [10] = molecular target: Fuc(a1-2)Gal(b1-4)GlcNAc(b1-3)GalNAc
# In short: as §1
# [11] = molecular target: Fuc(a1-2)Gal(b1-4)GlcNAc(b1-3)[Fuc(a1-2)Gal(b1-4)GlcNAc(b1-6)]GalNAc
# In short: as §1
# [12] = molecular target: Fuc(a1-2)Gal(b1-4)GlcNAc(b1-3)[Fuc(a1-3)[Gal(b1-4)]GlcNAc(b1-6)]Gal(b1-4)Glc
# In short: as §1
# [13] = molecular target: Fuc(a1-2)Gal(b1-4)GlcNAc(b1-6)GalNAc
# In short: as §1
# [14] = molecular target: Fuc(a1-2)Gal(b1-4)GlcNAc6S
# In short: as §1
# [15] = molecular target: Fuc(a1-2)Gal(b1-4)[Fuc(a1-3)]GlcNAc
# In short: as §1
# [16] = molecular target: Fuc(a1-2)Gal(b1-4)[Fuc(a1-3)]GlcNAc(b1-2)Man(a1-3)[Fuc(a1-2)Gal(b1-4)[Fuc(a1-3)]GlcNAc(b1-2)Man(a1-6)]Man(b1-4)GlcNAc(b1-4)[Fuc(a1-6)]GlcNAc
# In short: as §1
# [17] = molecular target: Fuc(a1-2)Gal(b1-4)[Fuc(a1-3)]GlcNAc(b1-2)[Fuc(a1-2)Gal(b1-4)[Fuc(a1-3)]GlcNAc(b1-4)]Man(a1-3)[Fuc(a1-2)Gal(b1-4)[Fuc(a1-3)]GlcNAc(b1-2)Man(a1-6)]Man(b1-4)GlcNAc(b1-4)GlcNAc
# In short: as §1
# [18] = molecular target: Fuc(a1-2)Gal(b1-4)[Fuc(a1-3)]GlcNAc(b1-3)Gal(b1-4)[Fuc(a1-3)]GlcNAc
# In short: as §1
# [19] = molecular target: Fuc(a1-2)Gal(b1-4)[Fuc(a1-3)]GlcNAc(b1-3)Gal(b1-4)[Fuc(a1-3)]GlcNAc(b1-3)Gal(b1-4)[Fuc(a1-3)]GlcNAc
# In short: as §1
# [20] = molecular target: Fuc(a1-2)Gal(b1-4)[Fuc(a1-3)]GlcNAc(b1-3)GalNAc
# In short: as §1
# [21] = molecular target: Fuc(a1-2)Gal(b1-4)[Fuc(a1-3)]GlcNAc(b1-3)[Neu5Ac(a2-6)Gal(b1-4)GlcNAc(b1-6)]Gal(b1-4)Glc
# In short: as §1
# [22] = molecular target: Fuc(a1-2)Gal3S(b1-4)GlcNAc
# In short: as §1
# [23] = molecular target: Fuc(a1-2)Gal6S(b1-3)GlcNAc
# In short: as §1
binder,measurement,setting,value
Thrombomodulin (Mus musculus) (protein) ALAKLQPTGSQCVEHECFALFQGPATFLDASQACQRLQGHLMTVRSSVAADVISLLLSQSSMDLGPWIGLQLPQGCDDPVHLGPLRGFQWVTGDNHTSYSRWARPNDQTAPLCGPLCVTVSTATEAAPGEPAWEEKPCETETQGFLCEFYFTASC,glycan array binding signal (z-score),[1],0.107
same,glycan array binding signal (z-score),[2],0.024
same,glycan array binding signal (z-score),[3],-0.155
same,glycan array binding signal (z-score),[4],0.124
same,glycan array binding signal (z-score),[5],0.049
same,glycan array binding signal (z-score),[6],0.223
same,glycan array binding signal (z-score),[7],-0.275
same,glycan array binding signal (z-score),[8],-0.145
same,glycan array binding signal (z-score),[9],-0.164
same,glycan array binding signal (z-score),[10],-0.241
same,glycan array binding signal (z-score),[11],-0.02
same,glycan array binding signal (z-score),[12],-0.074
same,glycan array binding signal (z-score),[13],-0.149
same,glycan array binding signal (z-score),[14],-0.496
same,glycan array binding signal (z-score),[15],-0.018
same,glycan array binding signal (z-score),[16],-0.007
same,glycan array binding signal (z-score),[17],0.17
same,glycan array binding signal (z-score),[18],-0.167
same,glycan array binding signal (z-score),[19],-0.162
same,glycan array binding signal (z-score),[20],-0.11
same,glycan array binding signal (z-score),[21],-0.28
same,glycan array binding signal (z-score),[22],-0.236
same,glycan array binding signal (z-score),[23],-0.367
